Measured values published in the supplement of paper PMC10126150.
Sequences with one replicate were seen in a single cluster, so their values are uncertain.

The sequences below were run on ATP (assay: switch fluorescence ratio, 500 uM ATP over buffer (Cy3 cluster intensity, sum of 5 cycles each) (fold (ratio)); higher = stronger signal-on switching upon ATP binding; sequences stand for … in TCGTCGGCAGCGTCAGATGTGTATAAGAGACAGTTTTTTTTTTTTTTTTTTTTTTTTT…TC). Conditions: aptamer strand: ATP DNA aptamer (quencher-CACCTGGGGGAGTATTGCGGAGGAAGG + anchor), 100 nM annealed; ATP concentration: 500 uM; one replicate.
Procedure, shortened: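 Five buffer/ATP imaging cycles were run on Cy3-labelled switching-strand clusters on a modified Illumina MiSeq flow-cell, with NaOH stripping and re-annealing between cycles. In each cycle, clusters annealed to 100 nM quencher-labelled ATP aptamer were imaged in selection buffer, then after 15 min with 500 uM ATP at 22 °C. Per cluster, the fluorescence ratio is summed target-cycle over summed buffer-cycle Cy3 intensity, averaged per switch-domain sequence. Only clusters within 100-1000 RFU were kept.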
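Note: ATP exposure 15 min at 22 °C before imaging.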

**Q.** For TTAAGGATTG, which switch fluorescence ratio is on record?
**A.** 1.02

**Q.** For TTAAGGTCAG, which switch fluorescence ratio is on record?
**A.** 0.995

**Q.** Which switch fluorescence ratio does the source give for TTAAGTGGAG here?
**A.** 1.02

**Q.** How did the switch fluorescence ratio turn out when TTAAGTTGAC was run?
**A.** 1.03

**Q.** TTAAGTTGCG was tested. Which switch fluorescence ratio did it give?
**A.** 1.03

**Q.** TTAATAAAAG was tested. Which switch fluorescence ratio did it give?
**A.** 1.01

**Q.** TTAATACATA was tested. Which switch fluorescence ratio did it give?
**A.** 1.07

**Q.** Which switch fluorescence ratio does the source give for TTAATACTAT here?
**A.** 0.988

**Q.** How did the switch fluorescence ratio turn out when TTAATCAGGC was run?
**A.** 1.07

**Q.** TTAATCTGTG was tested. Which switch fluorescence ratio did it give?
**A.** 1.01

**Q.** With TTAATCTTT as the sequence, how does the switch fluorescence ratio read?
**A.** 0.962

**Q.** How did the switch fluorescence ratio turn out when TTAATGAGAC was run?
**A.** 1.01

**Q.** Which switch fluorescence ratio does the source give for TTAATGTCTG here?
**A.** 0.952

**Q.** Which switch fluorescence ratio does the source give for TTAATTTTGC here?
**A.** 1.05

**Q.** For TTACAACGCA, which switch fluorescence ratio is on record?
**A.** 1.14

**Q.** With TTACAAGTAG as the sequence, how does the switch fluorescence ratio read?
**A.** 1

**Q.** Which switch fluorescence ratio does the source give for TTACACATGT here?
**A.** 0.987

**Q.** With TTACACCGA as the sequence, how does the switch fluorescence ratio read?
**A.** 1.2

**Q.** How did the switch fluorescence ratio turn out when TTACACGACC was run?
**A.** 1.38

**Q.** Which switch fluorescence ratio does the source give for TTACACGTCG here?
**A.** 1.07

**Q.** Which switch fluorescence ratio does the source give for TTACATCGGC here?
**A.** 1.02

**Q.** TTACATCTTA was tested. Which switch fluorescence ratio did it give?
**A.** 1.01

**Q.** Which switch fluorescence ratio does the source give for TTACATGAGG here?
**A.** 0.964

**Q.** With TTACCAAAAT as the sequence, how does the switch fluorescence ratio read?
**A.** 1.05

**Q.** With TTACCATCTA as the sequence, how does the switch fluorescence ratio read?
**A.** 1.03

**Q.** How did the switch fluorescence ratio turn out when TTACCGCACT was run?
**A.** 3.08

**Q.** With TTACCGCGAT as the sequence, how does the switch fluorescence ratio read?
**A.** 2.9

**Q.** How did the switch fluorescence ratio turn out when TTACCGCTGT was run?
**A.** 1.12

**Q.** For TTACCTAA, which switch fluorescence ratio is on record?
**A.** 1.08

**Q.** TTACCTGAGG was tested. Which switch fluorescence ratio did it give?
**A.** 1.01

**Q.** For TTACCTGTTG, which switch fluorescence ratio is on record?
**A.** 0.975

**Q.** With TTACGATTTG as the sequence, how does the switch fluorescence ratio read?
**A.** 0.988

**Q.** Which switch fluorescence ratio does the source give for TTACGCTATA here?
**A.** 1.65

**Q.** Which switch fluorescence ratio does the source give for TTACGGGTGA here?
**A.** 1.02

**Q.** With TTACGTGAAG as the sequence, how does the switch fluorescence ratio read?
**A.** 0.987

**Q.** Which switch fluorescence ratio does the source give for TTACGTTATT here?
**A.** 1.18

**Q.** How did the switch fluorescence ratio turn out when TTACTAATTC was run?
**A.** 1.04

**Q.** TTACTACATC was tested. Which switch fluorescence ratio did it give?
**A.** 1.03

**Q.** For TTACTGGGCC, which switch fluorescence ratio is on record?
**A.** 0.981

**Q.** TTACTGTCGA was tested. Which switch fluorescence ratio did it give?
**A.** 0.989

**Q.** With TTACTTCAGA as the sequence, how does the switch fluorescence ratio read?
**A.** 1.01

**Q.** For TTACTTGGTC, which switch fluorescence ratio is on record?
**A.** 1.05

**Q.** TTAGAAACTG was tested. Which switch fluorescence ratio did it give?
**A.** 0.926

**Q.** Which switch fluorescence ratio does the source give for TTAGAAGTGT here?
**A.** 0.9

**Q.** How did the switch fluorescence ratio turn out when TTAGAATAGG was run?
**A.** 1

**Q.** Which switch fluorescence ratio does the source give for TTAGACCGTC here?
**A.** 0.969

**Q.** How did the switch fluorescence ratio turn out when TTAGATCTCC was run?
**A.** 1.03

**Q.** Which switch fluorescence ratio does the source give for TTAGATGCGT here?
**A.** 0.973

**Q.** TTAGATGTGA was tested. Which switch fluorescence ratio did it give?
**A.** 1.06

**Q.** Which switch fluorescence ratio does the source give for TTAGCACAGC here?
**A.** 1.01

**Q.** For TTAGCAGTTT, which switch fluorescence ratio is on record?
**A.** 0.977

**Q.** For TTAGCCTTC, which switch fluorescence ratio is on record?
**A.** 1.07

**Q.** TTAGCCTTGT was tested. Which switch fluorescence ratio did it give?
**A.** 1.02

**Q.** Which switch fluorescence ratio does the source give for TTAGCGAAAT here?
**A.** 1.07

**Q.** For TTAGCGCCT, which switch fluorescence ratio is on record?
**A.** 1.04

**Q.** For TTAGCTCCCT, which switch fluorescence ratio is on record?
**A.** 1.03

**Q.** Which switch fluorescence ratio does the source give for TTAGCTTCGG here?
**A.** 1.04

**Q.** Which switch fluorescence ratio does the source give for TTAGGAATCT here?
**A.** 0.979

**Q.** How did the switch fluorescence ratio turn out when TTAGGAGCAA was run?
**A.** 2.96

**Q.** With TTAGGAGTTA as the sequence, how does the switch fluorescence ratio read?
**A.** 0.953

**Q.** TTAGGCGCTG was tested. Which switch fluorescence ratio did it give?
**A.** 0.969

**Q.** TTAGGCTCGG was tested. Which switch fluorescence ratio did it give?
**A.** 1.02

**Q.** Which switch fluorescence ratio does the source give for TTAGGGCTGA here?
**A.** 1

**Q.** How did the switch fluorescence ratio turn out when TTAGGGGACC was run?
**A.** 0.955

**Q.** For TTAGGTATGT, which switch fluorescence ratio is on record?
**A.** 1.01

**Q.** Which switch fluorescence ratio does the source give for TTAGGTGTGA here?
**A.** 0.988

**Q.** For TTAGGTGTTC, which switch fluorescence ratio is on record?
**A.** 1.01

**Q.** With TTAGGTTGC as the sequence, how does the switch fluorescence ratio read?
**A.** 0.987

**Q.** TTAGTACCGA was tested. Which switch fluorescence ratio did it give?
**A.** 1.07

**Q.** How did the switch fluorescence ratio turn out when TTAGTAGAC was run?
**A.** 1.05

**Q.** With TTAGTCGAGT as the sequence, how does the switch fluorescence ratio read?
**A.** 0.949

**Q.** With TTAGTCGCGT as the sequence, how does the switch fluorescence ratio read?
**A.** 1.02

**Q.** With TTAGTGACCG as the sequence, how does the switch fluorescence ratio read?
**A.** 1.05

**Q.** How did the switch fluorescence ratio turn out when TTAGTGCTGT was run?
**A.** 0.965

**Q.** How did the switch fluorescence ratio turn out when TTAGTGGTT was run?
**A.** 1.01

**Q.** Which switch fluorescence ratio does the source give for TTAGTTAAGA here?
**A.** 0.982

**Q.** Which switch fluorescence ratio does the source give for TTAGTTAGCA here?
**A.** 1.02

**Q.** How did the switch fluorescence ratio turn out when TTAGTTCAT was run?
**A.** 1.01

**Q.** TTAGTTGGTT was tested. Which switch fluorescence ratio did it give?
**A.** 0.945

**Q.** Which switch fluorescence ratio does the source give for TTAGTTTGGC here?
**A.** 1.05

**Q.** Which switch fluorescence ratio does the source give for TTATACCCCT here?
**A.** 1.09

**Q.** How did the switch fluorescence ratio turn out when TTATACTTT was run?
**A.** 1.01

**Q.** For TTATAGAAA, which switch fluorescence ratio is on record?
**A.** 1.02

**Q.** With TTATAGGGGG as the sequence, how does the switch fluorescence ratio read?
**A.** 1.04

**Q.** TTATATACTG was tested. Which switch fluorescence ratio did it give?
**A.** 0.976

**Q.** TTATATCTAA was tested. Which switch fluorescence ratio did it give?
**A.** 1.04

**Q.** TTATATGTTT was tested. Which switch fluorescence ratio did it give?
**A.** 0.986

**Q.** With TTATATTACC as the sequence, how does the switch fluorescence ratio read?
**A.** 1.05

**Q.** TTATATTGCC was tested. Which switch fluorescence ratio did it give?
**A.** 0.935

**Q.** TTATCAATAG was tested. Which switch fluorescence ratio did it give?
**A.** 1.03

**Q.** For TTATCAATCG, which switch fluorescence ratio is on record?
**A.** 1.02

**Q.** For TTATCACCGA, which switch fluorescence ratio is on record?
**A.** 1.04

**Q.** How did the switch fluorescence ratio turn out when TTATCAGAGT was run?
**A.** 1.02

**Q.** For TTATCATAGC, which switch fluorescence ratio is on record?
**A.** 0.99

**Q.** Which switch fluorescence ratio does the source give for TTATCATCGT here?
**A.** 1.04

**Q.** With TTATCCAAGC as the sequence, how does the switch fluorescence ratio read?
**A.** 0.954

**Q.** TTATCCTC was tested. Which switch fluorescence ratio did it give?
**A.** 1.02

**Q.** With TTATCCTTCT as the sequence, how does the switch fluorescence ratio read?
**A.** 1.16

**Q.** TTATCGTT was tested. Which switch fluorescence ratio did it give?
**A.** 1

**Q.** Which switch fluorescence ratio does the source give for TTATGAATGT here?
**A.** 0.956

**Q.** TTATGAGCTT was tested. Which switch fluorescence ratio did it give?
**A.** 1.05
